{"source": "PubChem BioAssay AID463173", "about": "(ICCB-Longwood Screening Facility, Harvard Medical School, 2010)", "note": "Screen size: about 52,000 compounds; about 4,300 (8.3%) were called active. No stated cut-off is given here; in the data, active means survival mostly below about 52% (no sharp cut-off); inactive means mostly above about 56%. The list shows a part of the results.", "data": [{"system": "DeltatarO mutant", "test": "S. aureus survival, RN4220 and DeltatarO strains – OD600, teichoic acid synthesis inhibitors, primary screen (AID 463173)", "details": "S. aureus RN4220 wild type/DeltatarO growth, OD600, 18 h, hits give low values, screened at 18.75 µg/mL (by protocol)", "values": [{"smiles": "CCOC(=O)c1c(NC(=O)c2cc(CC)on2)sc(C(C)=O)c1C", "survival": "inactive: 52%"}, {"smiles": "Cc1ccc(C)c(C(C)c2ccc(C)nc2)c1", "note": "(configuration not stated)", "survival": "inactive: 105%"}, {"smiles": "CC(=O)c1ccc(N2CCN(c3ccc4cc(S(=O)(=O)N5CCC(C)CC5)ccc4n3)CC2)cc1", "survival": "inactive: 89%"}, {"smiles": "Cc1cc(NC(=O)c2ccc(NC(=O)CCS(=O)(=O)c3cccs3)cc2)ccc1Br", "survival": "active: 35%"}, {"smiles": "Cc1cc2c(cc3c(SCc4ccccc4Cl)nnc(C)n32)o1", "survival": "active: 49%"}, {"smiles": "COc1cccc(NS(=O)(=O)c2ccc3[nH]cc(C(=O)N4CCCC4)c(=O)c3c2)c1", "survival": "inactive: 94%"}, {"smiles": "Cc1c(CCNC(=O)C(C)(C)C)sc2nc(-c3ccc(F)cc3)nn12", "survival": "inactive: 84%"}, {"smiles": "CC(=O)c1ccc(NC(=O)COCc2cc(-c3ccc(F)cc3)on2)cc1", "survival": "inactive: 102%"}, {"smiles": "CCn1c(COc2cccc(C)c2)nnc1SCC(=O)N1C(C)CCCC1C", "note": "(configuration not stated)", "survival": "inactive: 86%"}, {"smiles": "COc1ccccc1NC(=O)C1=C(C)Nc2nc(SCc3ccccc3)nn2C1c1ccncc1", "note": "(configuration not stated)", "survival": "inactive: 60%"}, {"smiles": "O=C(Nc1ccc(C(F)(F)F)cc1)C(Cc1ccccc1)n1cccc1", "note": "(configuration not stated)", "survival": "active: -4%"}, {"smiles": "O=C(NCCCN1CCN(c2ccccc2F)CC1)c1ccc2nc(N3CCCCC3)sc2c1", "survival": "inactive: 93%"}, {"smiles": "CC(=O)Nc1cccc(C(=O)NCc2ccc3c(c2)CCN3C(=O)c2ccc(F)cc2)c1", "survival": "inactive: 88%"}, {"smiles": "CC(C)N(Cc1ccccc1)C(=O)CN1C(=O)CSc2ccc(S(=O)(=O)N3CCCC3)cc21", "survival": "inactive: 92%"}, {"smiles": "Cc1ccc(N(C(=O)Cn2nnc(-c3ccc(C)o3)n2)C(C(=O)NCC2CCCO2)c2ccc(F)cc2)cc1", "note": "(configuration not stated)", "survival": "inactive: 95%"}, {"smiles": "CN(C)S(=O)(=O)N(CC(=O)NCCSc1ccccc1)c1ccccc1", "survival": "inactive: 87%"}, {"smiles": "CCn1cc(C(=O)N2CCN(c3ccc(OC)cc3)CC2)c(=O)c2cc(S(=O)(=O)N3CCOCC3)ccc21", "survival": "inactive: 135%"}, {"smiles": "COc1ccc(OCC(=O)Nc2ccc(-c3nc4cc(C)c(C)cc4o3)cc2)cc1", "survival": "inactive: 68%"}, {"smiles": "COc1ccc2[nH]cc(CCN=C(NC(=O)c3ccccc3C)Nc3nc(C)cc(C)n3)c2c1", "survival": "inactive: 78%"}, {"smiles": "COc1cc(OC)c(N(C)C(=O)c2sc3nc4n(c(=O)c3c2C)CCCCC4)cc1Cl", "survival": "inactive: 55%"}, {"smiles": "Cc1cc(Nc2cc(F)ccc2C)nc(-n2nc(C)cc2C)n1", "survival": "inactive: 89%"}, {"smiles": "COc1cc(NC(=O)Cn2nc3c(cc2=O)CC(C)CC3)cc(OC)c1OC", "note": "(configuration not stated)", "survival": "inactive: 64%"}, {"smiles": "CCc1ccc(NC(=O)C(=O)NCCc2sc3nc(-c4ccc(OC)cc4)nn3c2C)cc1", "survival": "inactive: 91%"}, {"smiles": "Cc1ccc(CNc2nc3ccc(C)cc3n3nnnc23)cc1", "survival": "inactive: 87%"}, {"smiles": "Cc1ccc(CCNC(=O)c2c(C)nn(-c3ccc(F)cc3)c2-n2cccc2)cc1", "survival": "inactive: 67%"}, {"smiles": "Cc1ccc(NS(=O)(=O)c2ccc(-c3cc(C)no3)cc2)c(Br)c1", "survival": "inactive: 75%"}, {"smiles": "CCOc1ccccc1NC(=O)N1CCC2(CC1)Oc1ccccc1C(=O)N2Cc1ccccc1F", "survival": "inactive: 84%"}, {"smiles": "CN(C)C(=O)NC1C=CS(=O)(=O)C1", "note": "(configuration not stated)", "survival": "inactive: 76%"}, {"smiles": "CC(=O)Nc1nc(N(C)C)nc(N(C)C)n1", "survival": "inactive: 89%"}, {"smiles": "CC1=C(C(=O)Nc2ccccc2)C(c2ccc(O)cc2)n2nc(SCc3ccccc3)nc2N1", "note": "(configuration not stated)", "survival": "inactive: 84%"}, {"smiles": "O=C(Cn1ncc2c3ccccc3n(Cc3ccc(F)cc3)c2c1=O)NCCCN1CCCCC1", "survival": "inactive: 91%"}, {"smiles": "N#Cc1c[nH]n2c(NC3CCCC3)c(-c3ccc(Cl)cc3)nc12", "survival": "inactive: 61%"}, {"smiles": "CC1CCN(C(=O)CN2C(=O)C(C)(C)Oc3ccc(C(=O)NC(C)C)cc32)CC1", "survival": "inactive: 97%"}, {"smiles": "COc1ccc(N2CCN(Cc3nnnn3C3CCCCC3)CC2)cc1", "survival": "inactive: 91%"}, {"smiles": "COc1ccc(NC(=O)Nc2nnc(N(CC(C)C)CC(C)C)s2)c(OC)c1", "survival": "inactive: 75%"}, {"smiles": "CCN(C(=O)c1cc2c(s1)-c1ccccc1OC2)c1cccc(C(F)(F)F)c1", "survival": "active: -1%"}, {"smiles": "COc1ccc(NC(=O)c2cc(C3CC3)nc3c2c(C)nn3-c2ccccc2)cc1OC", "survival": "inactive: 57%"}, {"smiles": "Cc1ccc(NC(=O)c2c(NC(=O)C(F)(F)F)sc3c2CCCCC3)cc1", "survival": "active: -5%"}, {"smiles": "O=C(Cn1c(-c2cccs2)cc2ccccc21)NCCCN1CCN(c2ccccc2F)CC1", "survival": "inactive: 69%"}, {"smiles": "O=C(CSc1nccn1Cc1ccccc1)Nc1ccc2c(c1)OCCO2", "survival": "inactive: 71%"}, {"smiles": "O=C(CSc1nnc(COc2ccccc2)o1)Nc1cc(C(F)(F)F)ccc1Cl", "survival": "inactive: 58%"}, {"smiles": "Cc1ccc(CNC(=O)Cn2cccc2C(=O)c2ccccc2C)cc1", "survival": "inactive: 80%"}, {"smiles": "COc1ccc(Cl)cc1NC(=O)CCn1c(=O)oc2ccccc21", "survival": "active: 40%"}, {"smiles": "O=c1[nH]c(SCc2ccc([N+](=O)[O-])cc2)nc2c1CCCC2", "survival": "inactive: 65%"}, {"smiles": "Cc1ccccc1NC(=O)CSc1ccc(-c2cccs2)nn1", "survival": "inactive: 98%"}, {"smiles": "Cc1ccc(N(CC(=O)Nc2ccc(C)c(Cl)c2)S(=O)(=O)c2cccs2)cc1", "survival": "inactive: 81%"}, {"smiles": "COc1cccc(NC(=O)Cn2c(=O)n(-c3ccccc3)c(=O)c3c2c2cc(OC)ccc2n3C)c1", "survival": "inactive: 86%"}, {"smiles": "O=S(=O)(c1ccc(-c2cnc(C3CC3)o2)cc1)N1CCN(c2ccccc2)CC1", "survival": "inactive: 66%"}, {"smiles": "CC1=C(C(=O)OC2CCCC2)C(c2ccccc2C(F)(F)F)CC(=O)N1", "note": "(configuration not stated)", "survival": "inactive: 84%"}, {"smiles": "COc1ccc(/C=C(\\NC(=O)c2ccccc2)C(=O)N2CCOCC2)cc1", "survival": "inactive: 99%"}, {"smiles": "Cc1cccc(CSc2ncccc2C(=O)O)c1", "survival": "active: 47%"}, {"smiles": "COc1ccc(-n2c(=O)c3ccc(C(=O)NCc4ccc(C)cc4)cc3n(Cc3ccc(Cl)cc3)c2=O)cc1", "survival": "inactive: 69%"}, {"smiles": "CCOC(=O)c1cc2occc2n1CC(=O)N1CCCCC1", "survival": "inactive: 98%"}, {"smiles": "COCCn1c(C)cc(O)c(C(c2ccc(F)cc2)N2CCC(C)CC2)c1=O", "note": "(configuration not stated)", "survival": "inactive: 87%"}, {"smiles": "COc1ccc(-n2nc3c(N4CCCC(C(=O)NCCc5ccccc5C)C4)nnc(C)c3c2C)cc1", "note": "(configuration not stated)", "survival": "inactive: 70%"}, {"smiles": "CC1=NN(c2ccc(Cl)cc2)C(=O)C1", "survival": "inactive: 68%"}, {"smiles": "O=C(c1ccc2c(c1)N(Cc1ccc(Cl)cc1)C(=O)c1ccccc1S2(=O)=O)N1CCN(c2ccccn2)CC1", "survival": "inactive: 80%"}]}]}
